# Measured values: the supplement of paper PMC8728848
# This is one part of the list.
# How the values were obtained:
# Experiment in all cases: glycan array binding signal (z-score within array); higher = stronger binding
# Settings in all cases: glycan notation: IUPAC condensed, linker removed
# Fuc(a1-2)Gal = molecular target: Fuc(a1-2)Gal
# Method in brief: (§1)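 Negative Z-scores can be read as non-binding. The Z-score is calculated within each array and then averaged across arrays of one protein sequence at different concentrations or buffers and across linkers. Arrays, 3228 in all, were curated from the Consortium for Functional Glycomics database and kept only where the protein sequence was available.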
# Fuc(a1-2)Gal(b1-3)GalNAc = molecular target: Fuc(a1-2)Gal(b1-3)GalNAc
# Method in brief: as §1
# [1] = molecular target: Fuc(a1-2)Gal(b1-3)GalNAc(b1-3)Gal
# Method in brief: as §1
# [2] = molecular target: Fuc(a1-2)Gal(b1-3)GalNAc(b1-3)Gal(a1-4)Gal(b1-4)Glc
# Method in brief: as §1
# [3] = molecular target: Fuc(a1-2)Gal(b1-3)GalNAc(b1-4)[Neu5Ac(a2-3)]Gal(b1-4)Glc
# Method in brief: as §1
# Fuc(a1-2)Gal(b1-3)GlcNAc = molecular target: Fuc(a1-2)Gal(b1-3)GlcNAc
# Method in brief: as §1
# [4] = molecular target: Fuc(a1-2)Gal(b1-3)GlcNAc(b1-3)Gal(b1-4)Glc
# Method in brief: as §1
# [5] = molecular target: Fuc(a1-2)Gal(b1-3)[Fuc(a1-4)]GlcNAc
# Method in brief: as §1
# Fuc(a1-2)Gal(b1-4)Glc = molecular target: Fuc(a1-2)Gal(b1-4)Glc
# Method in brief: as §1
# Fuc(a1-2)Gal(b1-4)Glc6S = molecular target: Fuc(a1-2)Gal(b1-4)Glc6S
# Method in brief: as §1
# Fuc(a1-2)Gal(b1-4)GlcNAc = molecular target: Fuc(a1-2)Gal(b1-4)GlcNAc
# Method in brief: as §1
# [6] = molecular target: Fuc(a1-2)Gal(b1-4)GlcNAc(b1-3)Gal(b1-4)GlcNAc
# Method in brief: as §1
# [7] = molecular target: Fuc(a1-2)Gal(b1-4)GlcNAc(b1-3)Gal(b1-4)GlcNAc(b1-3)Gal(b1-4)GlcNAc
# Method in brief: as §1
# [8] = molecular target: Fuc(a1-2)Gal(b1-4)GlcNAc6S
# Method in brief: as §1
# [9] = molecular target: Fuc(a1-2)Gal(b1-4)[Fuc(a1-3)]GlcNAc
# Method in brief: as §1
# [10] = molecular target: Fuc(a1-2)Gal(b1-4)[Fuc(a1-3)]GlcNAc(b1-3)Gal(b1-4)[Fuc(a1-3)]GlcNAc
# Method in brief: as §1
# [11] = molecular target: Fuc(a1-2)Gal(b1-4)[Fuc(a1-3)]GlcNAc(b1-3)Gal(b1-4)[Fuc(a1-3)]GlcNAc(b1-3)Gal(b1-4)[Fuc(a1-3)]GlcNAc
# Method in brief: as §1
# Fuc(a1-2)Gal6S(b1-4)Glc = molecular target: Fuc(a1-2)Gal6S(b1-4)Glc
# Method in brief: as §1
# [12] = molecular target: Fuc(a1-2)Gal6S(b1-4)Glc6S
# Method in brief: as §1
# [13] = molecular target: Fuc(a1-2)Gal6S(b1-4)GlcNAc
# Method in brief: as §1
# Fuc(a1-2)[Gal(a1-3)]Gal = molecular target: Fuc(a1-2)[Gal(a1-3)]Gal
# Method in brief: as §1
# [14] = molecular target: Fuc(a1-2)[Gal(a1-3)]Gal(b1-3)GlcNAc
# Method in brief: as §1
# [15] = molecular target: Fuc(a1-2)[Gal(a1-3)]Gal(b1-4)Glc
# Method in brief: as §1
# [16] = molecular target: Fuc(a1-2)[Gal(a1-3)]Gal(b1-4)GlcNAc
# Method in brief: as §1
# [17] = molecular target: Fuc(a1-2)[Gal(a1-3)]Gal(b1-4)[Fuc(a1-3)]GlcNAc
# Method in brief: as §1
# [18] = molecular target: Fuc(a1-2)[Gal(a1-4)]Gal(b1-4)GlcNAc
# Method in brief: as §1
# [19] = molecular target: Fuc(a1-2)[GalNAc(a1-3)]Gal
# Method in brief: as §1
# [20] = molecular target: Fuc(a1-2)[GalNAc(a1-3)]Gal(b1-3)GlcNAc
# Method in brief: as §1
# [21] = molecular target: Fuc(a1-2)[GalNAc(a1-3)]Gal(b1-4)Glc
# Method in brief: as §1
# [22] = molecular target: Fuc(a1-2)[GalNAc(a1-3)]Gal(b1-4)GlcNAc
# Method in brief: as §1
binder,measurement,setting,value
MD-2 (Homo sapiens) (protein) MLPFLFFSTLFSSIFTEAQKQYWVCNSSDASISYTYCDKMQYPISINVNPCIELKGSKGLLHIFYIPRRDLKQLYFNLYITVNTMNLPKRKEVICRGSDDDYSFCRALKGETVNTTISFSFKGIKFSKGKYKCVVEAISGSPEEMLFCLEFVILHQPNSN,glycan array binding signal (z-score),Fuc(a1-2)Gal,-0.344
same,glycan array binding signal (z-score),Fuc(a1-2)Gal(b1-3)GalNAc,-0.261
same,glycan array binding signal (z-score),[1],0.083
same,glycan array binding signal (z-score),[2],-0.274
same,glycan array binding signal (z-score),[3],-0.162
same,glycan array binding signal (z-score),Fuc(a1-2)Gal(b1-3)GlcNAc,-0.291
same,glycan array binding signal (z-score),[4],-0.341
same,glycan array binding signal (z-score),[5],-0.334
same,glycan array binding signal (z-score),Fuc(a1-2)Gal(b1-4)Glc,-0.313
same,glycan array binding signal (z-score),Fuc(a1-2)Gal(b1-4)Glc6S,-0.279
same,glycan array binding signal (z-score),Fuc(a1-2)Gal(b1-4)GlcNAc,-0.057
same,glycan array binding signal (z-score),[6],-0.096
same,glycan array binding signal (z-score),[7],0.156
same,glycan array binding signal (z-score),[8],-0.043
same,glycan array binding signal (z-score),[9],-0.341
same,glycan array binding signal (z-score),[10],-0.312
same,glycan array binding signal (z-score),[11],-0.248
same,glycan array binding signal (z-score),Fuc(a1-2)Gal6S(b1-4)Glc,-0.261
same,glycan array binding signal (z-score),[12],2.35
same,glycan array binding signal (z-score),[13],-0.328
same,glycan array binding signal (z-score),Fuc(a1-2)[Gal(a1-3)]Gal,-0.346
same,glycan array binding signal (z-score),[14],-0.322
same,glycan array binding signal (z-score),[15],-0.422
same,glycan array binding signal (z-score),[16],-0.319
same,glycan array binding signal (z-score),[17],-0.443
same,glycan array binding signal (z-score),[18],-0.369
same,glycan array binding signal (z-score),[19],-0.333
same,glycan array binding signal (z-score),[20],-0.306
same,glycan array binding signal (z-score),[21],-0.074
same,glycan array binding signal (z-score),[22],-0.264
